# The list shows a part of the results.
# Test system: T1, Caupolican (Caup) homeodomain DNA-binding domain
# T1 sequence: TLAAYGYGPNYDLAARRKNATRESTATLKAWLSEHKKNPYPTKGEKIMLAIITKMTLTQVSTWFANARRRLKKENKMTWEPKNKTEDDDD
# Assay: PBM E-score (8-mer, recovered from the published 9-mer minima) (E-score (dimensionless, -0.5 to 0.5)); Drosophila protein; higher = stronger relative binding preference, active = 0.31 or more
# Method: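 Protein binding microarray (PBM): in vitro transcribed/translated Caupolican (Caup) homeodomain DNA-binding domain (residues 214-303) applied at 100 nM to a universal 8-mer PBM array (Agilent AMADID 015681). The 8-mer enrichment score (E-score, range -0.5 to 0.5) was computed, and each 9-mer score is the minimum E-score of its two constituent 8-mers. The E-score is the same for a 9-mer and its reverse complement; 0.31 is the stated binding threshold.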
row,Sequence,PBM E-score
1,GTTTAAAC,inactive: 0.193
2,GTAACGGA,inactive: 0.13
3,AAGAGCTT,inactive: -0.121
4,GTAAGGAC,inactive: 0.0555
5,ATAGAAAC,inactive: 0.105
6,CCGGTACC,inactive: -0.0922
7,AACGTATC,inactive: 0.0542
8,AGGTCTGC,inactive: -0.215
9,AACTGGAG,inactive: -0.105
10,AGCTCAAT,inactive: -0.0704
11,AGTAGAGC,inactive: 0.0068
12,CTTACTCA,inactive: -0.0442
13,GTGCGGTA,inactive: -0.0407
14,CCAGCAGG,inactive: -0.23
15,CTGTTTTC,inactive: 0.134
16,AACCTCTA,inactive: -0.109
17,ACAGGAGC,inactive: 0.0816
18,CTGCGCCA,inactive: -0.229
19,AACTTCGC,inactive: -0.0814
20,AGGTTGAG,inactive: -0.0734
21,TGTCCGAA,inactive: 0.198
22,ATAATGAC,inactive: 0.077
23,AGTCTGTA,inactive: 0.125
24,ATAGACCC,inactive: -0.0577
25,CAGTCGAC,inactive: -0.00263

row,Sequence,PBM E-score
1,ATCGCATC,inactive: -0.0871
2,GAGCCCGC,inactive: -0.251
3,GATGAAGA,inactive: -0.0652
4,GGCTCCAA,inactive: -0.199
5,AGAGTGGC,inactive: -0.0745
6,CACGGAGC,inactive: -0.071
7,GGACGTAA,inactive: -0.107
8,GGGAACTA,inactive: -0.0404
9,CCAAATCA,inactive: 0.0288
10,TGGATCAA,inactive: 0.0568
11,ACGGATGC,inactive: 0.0262
12,ACCCATGA,inactive: -0.0525
13,GCATACCA,inactive: -0.00368
14,ACCCCCGA,inactive: -0.198
15,CGCATTTC,inactive: -0.0244
16,ACATGTAC,active: ≥ 0.48
17,CTCTGACC,inactive: -0.164
18,CTTCTGTC,inactive: 0.0295
19,ACGGTCAT,inactive: -0.0146
20,CGGGAAAG,inactive: -0.172
21,CCGGAAAG,inactive: -0.15
22,CATCGCTA,inactive: 0.0831
23,TGTAAACA,active: ≥ 0.36
24,GTAGGTAA,inactive: 0.0776
25,TAACCACA,inactive: 0.156

row,Sequence,PBM E-score
1,ATAACGCA,inactive: 0.0314
2,CTAATGTA,inactive: 0.206
3,GAAGAAAC,inactive: 0.00987
4,ACAGCTAC,inactive: 0.196
5,AAACTAAA,inactive: 0.0783
6,GCTCGTCA,inactive: -0.063
7,GGCTAACC,inactive: -0.133
8,CGACACGC,inactive: 0.264
9,AATAGCTC,inactive: -0.0202
10,ATGATGGA,inactive: 0.0619
11,ATCGATCG,inactive: 0.115
12,ATCAGCGA,inactive: -0.0559
13,CTTATGGA,inactive: -0.105
14,AACGTGAA,inactive: 0.0764
15,GGTCATAC,inactive: -0.00437
16,GCCCCTCA,inactive: -0.223
17,CCAATAAC,inactive: 0.136
18,GTTATCAA,inactive: 0.0817
19,ACCGCGAA,inactive: -0.125
20,GCGACGTA,inactive: -0.0424
21,CATACCCC,inactive: -0.0672
22,CTTACTGC,inactive: -0.0218
23,ACCGGCTG,inactive: -0.142
24,CAAGCTTC,inactive: 0.0453
25,ACGGAACA,inactive: 0.206

row,Sequence,PBM E-score
1,AGACCTTG,inactive: -0.0574
2,ATGGGCTC,inactive: -0.099
3,ACTCCGAT,inactive: -0.084
4,CGATCTAG,inactive: 0.0352
5,CGCGTACG,inactive: -0.0471
6,ACTAATAA,inactive: 0.175
7,AAACCTCC,inactive: -0.124
8,AGTTCTGC,inactive: -0.0355
9,ACCCCCAA,≥ -0.112
10,ACGCCTAA,inactive: 0.0349
11,AGACTTCG,inactive: -0.0889
12,CAACACGC,inactive: 0.239
13,GCTACGGA,inactive: -0.0779
14,CGCCCATC,inactive: -0.155
15,CGTGAGTC,inactive: -0.0814
16,CTGTGCGA,inactive: -0.0551
17,CTGGAGTA,inactive: -0.0333
18,AACAAAGA,inactive: 0.0783
19,AAACAGCA,inactive: 0.163
20,AAGTCTGC,inactive: -0.0465
21,ATTTCCGA,inactive: -0.03
22,TGTTTCAA,≥ 0.243
23,CTAGACCC,inactive: -0.147
24,GCAATATA,inactive: 0.0608
25,AAAGCGCG,inactive: -0.104

row,Sequence,PBM E-score
1,CTATCGGA,inactive: 0.00343
2,ATCCCGGC,inactive: -0.153
3,AAGCACAC,inactive: 0.0261
4,CTAATCCC,inactive: 0.00576
5,CAGGCTGG,inactive: -0.157
6,CCGTGGGA,inactive: -0.195
7,CAGAGCCC,inactive: -0.202
8,CCTACCTA,inactive: 0.0226
9,AAAGCCGA,inactive: -0.139
10,GGCGGTCA,inactive: -0.235
11,TAGTTAAA,inactive: 0.141
12,ACCCAGCC,inactive: -0.2
13,GCGCCGAA,inactive: -0.103
14,CATGATCC,inactive: 0.0575
15,ACGGCACG,inactive: -0.0559
16,TACTCACA,inactive: 0.129
17,CGTATGTA,inactive: 0.289
18,AATTGCAG,inactive: 0.033
19,AACTCATG,inactive: 0.119
20,GAGGGTCC,inactive: -0.236
21,CTGAACTA,inactive: 0.0633
22,GGCGAGAA,inactive: -0.0726
23,CCTTGACC,inactive: -0.115
24,AGTCCGTG,inactive: -0.0293
25,TTGCCCAA,inactive: -0.127

row,Sequence,PBM E-score
1,GTCGAGAC,inactive: 0.0718
2,CGTCGTAG,inactive: -0.133
3,CGAGCGAA,inactive: -0.079
4,GCCGTGTA,active: 0.341
5,CGCCCATA,inactive: -0.126
6,TAGTCAGA,inactive: 0.0762
7,CAACACTC,inactive: 0.0803
8,GGTGTGAC,inactive: -0.0123
9,ATTGATAC,inactive: 0.139
10,CACATAAA,inactive: 0.121
11,CCATGGGC,inactive: -0.163
12,CATTCTCG,inactive: -0.0197
13,ACGTCATC,inactive: -0.0358
14,AGCTAAGA,inactive: -0.0433
15,GAGTCAAA,inactive: -0.0806
16,ACTGTTGC,inactive: 0.0834
17,GCCGACCC,inactive: -0.282
18,TAAATGTA,inactive: 0.258
19,GAGGGTTA,inactive: -0.0332
20,AGGGTCAC,inactive: -0.0853
21,CCAATCCG,inactive: -0.194
22,AGCAAATC,inactive: 0.0953
23,GGAGAGGA,inactive: -0.252
24,AATGTAAC,inactive: 0.295
25,CCCCGCAC,inactive: -0.203

row,Sequence,PBM E-score
1,CAGAATAC,inactive: 0.118
2,TGACCGCA,inactive: -0.0827
3,AAATCTCA,inactive: -0.00515
4,GACTTCCA,inactive: -0.143
5,CATCTCAA,inactive: 0.183
6,GTCTGAGA,inactive: -0.0277
7,ATCTAGAC,inactive: -0.00057
8,CTCGAAGA,inactive: -0.0993
9,CGTCTGCA,inactive: 0.00318
10,GAAATGTA,inactive: 0.131
11,CGAGTGAA,inactive: -0.00479
12,CGCTCAGC,inactive: -0.138
13,GATCGTGA,inactive: 0.0591
14,CCACGTCA,inactive: 0.0188
15,AAACGCCT,inactive: -0.02
16,CAGATACG,inactive: -0.0468
17,AGATATGA,inactive: 0.0393
18,GGACATCA,inactive: 0.234
19,AAAAAGTT,inactive: 0.0271
20,AGATGTTA,inactive: 0.286
21,TGAATTCA,inactive: 0.0887
22,AGAAACGC,inactive: -0.0779
23,ATGTCCGG,inactive: 0.139
24,AAAGGAGA,inactive: -0.0827
25,GCTTGACC,inactive: -0.0615

row,Sequence,PBM E-score
1,GGAAGCGA,inactive: -0.0872
2,ACCGGCTA,≥ -0.0645
3,AAGGATAA,inactive: 0.0717
4,GTGTTAAA,inactive: 0.246
5,ATATTAGA,inactive: 0.168
6,CCATGCCG,inactive: -0.0587
7,AAAGACTC,inactive: -0.0151
8,CCAAGGTA,inactive: -0.00354
9,GGCAGGTA,inactive: -0.126
10,ATAGAGCC,inactive: -0.124
11,GCGACGGA,inactive: -0.0825
12,ACAGGAGG,inactive: -5e-05
13,AGATATAC,inactive: 0.103
14,AATGGAGG,inactive: -0.102
15,CTGCGAAC,inactive: -0.0168
16,AAGGACAG,inactive: -0.00712
17,ATATCGTA,inactive: 0.068
18,GTTAGGTA,inactive: 0.141
19,GCACGTAA,inactive: 0.0741
20,CGCTATAG,inactive: -0.025
21,ATCCGCAG,inactive: -0.0072
22,GTCTTCCA,inactive: -0.109
23,ACGATAAT,≥ 0.183
24,ATAATTAC,inactive: 0.213
25,ACATAATG,inactive: 0.263

row,Sequence,PBM E-score
1,GGGGCCTA,inactive: -0.286
2,CTATCAAG,inactive: 0.00356
3,GTCTTCAC,inactive: -0.136
4,GTAGTAAA,inactive: 0.172
5,CTATCAGA,inactive: -0.0505
6,ACGCGCGC,inactive: -0.0615
7,AAACCCCA,≥ -0.0114
8,AGCATTAA,inactive: 0.103
9,CTGTGGTC,inactive: -0.0302
10,ACGACCAG,≥ 0.124
11,TGTATTAA,inactive: 0.235
12,CGATATTC,inactive: -0.0778
13,AATACATG,active: 0.424
14,ACCTCTAA,inactive: -0.00946
15,AGGCTGGG,inactive: -0.186
16,ATCCGAAT,≥ 0.074
17,CTGTGATA,inactive: 0.0638
18,AGCAGGAA,inactive: 0.0483
19,CCGGAACG,inactive: -0.115
20,AAGGATCT,inactive: -0.00914
21,CGAAACTC,inactive: -0.0915
22,ATAGACTG,inactive: 0.0292

# From the supplement of paper PMC3724861
